Data from the supplement of paper PMC3334620.
The full ranking holds about 33,000 sequences; the median of “E-score (-0.5 to 0.5)” is about -0.013, and the highest 2% start at about 0.3. The list shows a part of the results.

target: T1, Msn1 (UniProt P22148); test: PBM E-score (8-mer binding enrichment) (E-score (-0.5 to 0.5)); higher = stronger / more preferred TF binding; most listed sequences are background and not binding sites; conditions: protein concentration: 200 nM; construct: GST-full length
T1 sequence: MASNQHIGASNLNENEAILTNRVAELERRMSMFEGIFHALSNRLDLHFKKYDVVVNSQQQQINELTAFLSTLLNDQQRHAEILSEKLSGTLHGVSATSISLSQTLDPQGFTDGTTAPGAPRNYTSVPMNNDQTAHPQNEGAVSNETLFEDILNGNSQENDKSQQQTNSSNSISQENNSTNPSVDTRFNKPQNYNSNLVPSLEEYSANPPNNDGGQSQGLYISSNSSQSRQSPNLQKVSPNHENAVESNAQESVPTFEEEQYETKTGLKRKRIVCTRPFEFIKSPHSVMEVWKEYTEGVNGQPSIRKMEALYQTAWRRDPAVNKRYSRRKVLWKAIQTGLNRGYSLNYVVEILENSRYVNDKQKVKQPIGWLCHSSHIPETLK
How it was run: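 Yeast transcription factors, full-length or as DNA-binding domains, were expressed with a GST tag using PURExpress in vitro transcription/translation. At about 100-200 nM they were applied to universal all-10-mer Agilent arrays, double-stranded by primer extension on fresh or once-stripped slides. Fluorescent anti-GST detected bound protein, and masliner normalised the scans. E-scores for ungapped eight-base words, pooled with reverse complements, came from the Universal PBM Analysis Suite.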

Sequence	PBM E-score
GAAGCTTA	0.00159
TCTTTTCA	0.101
GAACGGTC	-0.0602
ACGCTCCC	-0.164
AAGCCATA	-0.00452
GGCTTTAC	0.022
ACCGGAGT	-0.0967
GACCACTA	-0.131
CTCTATGA	-0.178
AGGAGAAA	-0.189
AATAGACA	0.259
AAATTGCG	0.012
GTGTACAA	0.32
CTCTTAGC	-0.0929
ATGAACTC	-0.035
ATCAGTCA	0.0402
GAATAACA	0.0873
ATCTAGAT	0.0576
ACAAGTCC	0.363
AGGTTTGG	-0.106
CAGTGCCA	-0.26
CAGTGGCC	-0.238
CCCCTTGC	-0.207
CTCCTGTA	0.058

Sequence	PBM E-score
CAAATAGC	0.106
ACGACCGC	-0.219
CTTATAAA	0.278
CGCAAACA	0.143
TCAGAAGA	-0.0475
ATGGCTGC	-0.108
GTCTAGTA	0.243
ACGGAACG	0.149
ACTAGTTA	0.196
CCTAATAC	-0.0295
TATCCGGA	0.277
CCACAACG	-0.0742
CAATCGTG	-0.0361
CCGGGGCG	-0.24
CATCCACG	0.00062
ATTCTTTA	0.201
GCCATGCA	-0.00541
GCCGTAAA	0.00542
AGTCATAA	0.0855
CTGGGAAA	-0.203
CAGAGCTG	-0.166
AATCAGAC	0.0545
AGATGACA	0.157
TCATCTAA	0.0096

Sequence	PBM E-score
GGAGAAAA	-0.038
GCGCGCTA	0.194
GTATCTCA	0.165
AGATTGCG	0.0722
CACCGTCA	-0.0297
GGTAGTAA	-0.159
AAGGTCGA	0.0716
GGTCGAAC	-0.0911
AAGATGCA	0.0346
CCGAGTCC	0.137
TAATTGAA	-0.031
AATCCCAT	-0.197
CGAGATCG	-0.108
GATCCCGC	-0.139
CCAGCGCC	-0.229
AGACGAAA	0.291
ATAAATGA	0.217
GGATACCC	-0.0849
CGCGTCCA	0.211
CGCCTTTC	-0.189
AACTTTAC	0.0544
ATGCACCA	-0.162
AAGCGAAT	0.12
GCTTCTCA	-0.273

Sequence	PBM E-score
CCGGTAGG	-0.158
AGTCTTTC	-0.115
AACTACTC	-0.0512
CCTCGGGA	0.055
CACTCGGC	0.148
CGACCCGC	-0.166
CCATATCA	0.0259
AGCTTCAT	0.128
ACGCCTGG	-0.139
GTTTTTTA	0.175
GTACCACA	0.166
CGGGCAAC	-0.0877
CATAATAG	0.166
AAGTAAAG	-0.0747
TAGGTAGA	0.0723
CCTTCAAA	0.0463
ATTCCCAG	0.132
TTGTCAAA	0.18
GTACTCAC	0.173
AACCTTCG	0.0972
AACCGTCA	-0.195
CTGGCGAC	-0.223
